Data as given in PubChem BioAssay (NCATS).
Inconclusive results, whose numbers are uncertain, are shown with a selection of clear calls. For some assays here: Potencies of inconclusive entries are doubtful fits and often do not repeat. For some assays here: A note “side channel” means that the fit belongs to a control or component signal, not to the main read-out. Active and inactive are the calls of the source. Unless noted, calls come from the whole dose curve; as a rule, active = well fitted curve in the direction sought with a large enough effect; inconclusive = small, poorly fitted or top-dose-only effect, or another doubt; inactive = no such curve, though single readings can be large; an effect the other way counts as inactive or inconclusive.

Legend:
[1] = Cell Viability - LYMP2-016 (AID 984); conditions: LYMP2-016 lymphoblastoid cell viability, qHTS; activity change, negative = cytotoxicity: at 92.2 µM (top of the series);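 note: potency is the fitted concentration of half-maximal effect; cells exposed to compound for 24 hours at 37 °C; nearly all actives have a fitted effect of over 55% in size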
How it was run: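 Concentration-dependent ATP depletion measured in LYMP2-016 lymphoblastoid cells, 24 h, 37 C; luciferase-based luminescent detection; Hill-equation AC50.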

[2] = Cell Viability - LYMP2-018 (AID 985);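 note: potency is the fitted concentration of half-maximal effect; compound exposure lasted 24 hr at 37 °C; nearly all actives have a fitted effect of over 50% in size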
How it was run: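 Seed 2500 lymphoblastoid cells per well, incubate 5 hr at 37 C, add compound and incubate 24 hr at 37 C, add CellTiter-Glo, wait 30 min at room temperature, then read luminescence.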

[3] = Cell Viability - LYMP2-020 (AID 986); conditions: activity change, negative = viability loss: at 92.2 µM (top of the series);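 note: potency is the fitted concentration of half-maximal effect; cells exposed to compound for 24 h at 37 °C; nearly all actives have a fitted effect of over 55% in size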
How it was run: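 Seed 2500 cells per well and incubate 5 hr at 37 C. Add compounds at a concentration series and incubate 24 hr at 37 C. Add CellTiter-Glo, wait 30 min at RT, read luminescence, and fit a Hill curve for AC50.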

[4] = Cell Viability - LYMP2-022 (AID 987); note: potency is the fitted concentration of half-maximal effect; nearly all actives have a fitted effect of over 55% in size
How it was run: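 Cells were seeded at 2500 per well, rested 5 hr at 37 C, and treated with titrated compounds for 24 hr at 37 C. Cellular ATP was then quantified by luciferase luminescence, and AC50 values were derived from Hill-modelled concentration-response curves.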

[5] = Cell Viability - LYMP2-024 (AID 988); conditions: LYMP2-024 lymphoblastoid cell viability; activity change, negative = cytotoxicity: at 92.2 µM (top of the series); note: potency is the fitted concentration of half-maximal effect; nearly all actives have a fitted effect of over 60% in size
How it was run: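 qHTS cytotoxicity, human lymphoblastoid line, complete medium; 24 h cpd treatment, 37 C; CellTiter-Glo ATP luminescence readout; tetraoctylammonium bromide positive control; AC50 via Hill fit.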

[6] = Cell Viability - LYMP2-026 (AID 989);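 note: potency is the fitted concentration of half-maximal effect; cells exposed to compound for 24 h at 37 °C; nearly all actives have a fitted effect of over 50% in size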
How it was run: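 Cells are seeded at 2500 per well and held 5 hr at 37 C. Compounds are added in concentration series for 24 hr, then CellTiter-Glo reagent is applied and luminescence read.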

[7] = Cell Viability - LYMP1-002 - Assay at 40 hr (AID 994); note: potency is the fitted concentration of half-maximal effect; nearly all actives have a fitted effect of over 60% in size
How it was run: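 Cells are plated at 2500 per well and rested 5 hr at 37 C. Compounds are added and incubated 40 hr at 37 C. CellTiter-Glo reagent is added for 30 min at room temperature before luminescence is read.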

[8] = molecular target: Ubiquitin carboxyl-terminal hydrolase 1 (Homo sapiens) (UniProt O94782); experiment: Inhibitors of USP1/UAF1: Pilot qHTS (AID 504865);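 note: rhodamine fluorescence freed from ubiquitin-rhodamine substrate followed over time; potency is the fitted concentration of half-maximal effect; nearly all actives have a fitted effect of over 35% in size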
Chain of UniProt O94782 (O94782 whole entry, looked up): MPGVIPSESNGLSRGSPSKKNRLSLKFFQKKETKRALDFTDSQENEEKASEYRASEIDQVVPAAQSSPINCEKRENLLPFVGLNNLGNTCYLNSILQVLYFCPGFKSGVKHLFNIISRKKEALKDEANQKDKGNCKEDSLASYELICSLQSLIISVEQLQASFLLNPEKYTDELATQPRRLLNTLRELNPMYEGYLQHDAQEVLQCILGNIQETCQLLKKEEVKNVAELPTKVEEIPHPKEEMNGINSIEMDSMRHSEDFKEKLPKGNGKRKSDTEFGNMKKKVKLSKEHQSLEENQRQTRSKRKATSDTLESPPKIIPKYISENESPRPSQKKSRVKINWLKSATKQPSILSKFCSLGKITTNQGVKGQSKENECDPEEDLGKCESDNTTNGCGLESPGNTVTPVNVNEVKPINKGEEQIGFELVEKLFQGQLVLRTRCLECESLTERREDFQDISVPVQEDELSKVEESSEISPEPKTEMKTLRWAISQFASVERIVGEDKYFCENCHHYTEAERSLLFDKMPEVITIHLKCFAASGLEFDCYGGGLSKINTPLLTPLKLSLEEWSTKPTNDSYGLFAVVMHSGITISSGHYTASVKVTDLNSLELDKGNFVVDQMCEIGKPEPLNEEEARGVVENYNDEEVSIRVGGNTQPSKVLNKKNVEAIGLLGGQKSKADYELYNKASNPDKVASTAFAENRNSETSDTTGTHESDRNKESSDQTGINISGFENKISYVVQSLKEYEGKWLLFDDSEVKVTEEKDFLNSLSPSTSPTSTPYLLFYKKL
How it was run: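 Enzyme-free wells gave the negative control, while test wells held 1nM USP1/UAF1 preincubated with compound for 15 min at room temperature. Ub-Rho at 150nM final started the reaction, and fluorescence at 480/540 nm was recorded kinetically.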

[9] = molecular target: Estrogen receptor (Homo sapiens) (UniProt P03372); experiment: qHTS assay for small molecule antagonists of estrogen receptor alpha signaling (AID 588513; active = well fitted curve in the direction sought with a large enough effect in the signal ratio, with a control signal flat, not every such curve was filed as active; inconclusive = small, poorly fitted or top-dose-only effect, or effect the other way, or a change in a side signal; inactive = no such curve, though single readings can be large or run the other way; the % refers to the signal ratio; note: % is set by controls: 0 for no effect and ±100 for the full control effect); conditions: ER-alpha-UAS-bla HEK293, beta-lactamase ratio, antagonist mode; activity, negative = inhibition: at 76.9 µM (top of the series) unless noted
Chain of UniProt P03372 (P03372 whole entry, looked up): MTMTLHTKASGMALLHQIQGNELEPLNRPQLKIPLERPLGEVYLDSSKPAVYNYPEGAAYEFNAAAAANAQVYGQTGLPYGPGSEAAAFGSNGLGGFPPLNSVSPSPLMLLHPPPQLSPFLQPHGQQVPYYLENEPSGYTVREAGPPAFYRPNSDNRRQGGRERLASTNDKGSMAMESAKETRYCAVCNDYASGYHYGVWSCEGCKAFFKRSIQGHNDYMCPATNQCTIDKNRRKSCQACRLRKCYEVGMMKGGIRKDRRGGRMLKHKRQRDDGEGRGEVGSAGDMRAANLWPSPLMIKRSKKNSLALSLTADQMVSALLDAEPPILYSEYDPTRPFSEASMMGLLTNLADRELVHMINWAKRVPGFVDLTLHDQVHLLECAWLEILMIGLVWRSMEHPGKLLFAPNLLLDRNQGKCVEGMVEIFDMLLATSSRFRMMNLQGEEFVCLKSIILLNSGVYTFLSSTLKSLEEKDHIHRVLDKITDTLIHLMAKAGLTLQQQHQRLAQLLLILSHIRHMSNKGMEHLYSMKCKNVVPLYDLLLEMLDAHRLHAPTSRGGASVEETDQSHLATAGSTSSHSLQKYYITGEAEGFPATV
How it was run: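 Antagonist-mode qHTS in ER-alpha-UAS-bla HEK 293 cells: compound titration, 0.5nM estradiol for 18 h, CCF4 fluorescence, Hill-derived IC50.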

[10] = molecular target: Estrogen receptor (Homo sapiens) (UniProt P03372); experiment: qHTS assay for small molecule agonists of estrogen receptor alpha signaling (AID 588514; calls by dose curve;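 note: 0% = vehicle only and 100% = reference agonist; nearly all actives have a fitted effect of over 70% in size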); conditions: ER-alpha-UAS-bla HEK293, beta-lactamase ratio, 18 h; activation: at 76.8 µM (top of the series), percent of full estradiol response, vehicle zero
How it was run: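 Efficacy is expressed against 20 nM 17-beta-estradiol (100%) and DMSO basal (0%); EC50 from Hill equation. Assay: beta-lactamase reporter in ER-alpha-UAS-bla HEK 293 cells, 18 h compound incubation, CCF4 detection.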

[11] = molecular target: Bile acid receptor (Homo sapiens) (UniProt Q96RI1); experiment: qHTS assay for small molecule antagonists of farnesoid X receptor signaling (AID 588526; calls by dose curve; note: % is set by controls: 0 for no effect and ±100 for the full control effect); conditions: HEK293T FXR-UAS-bla, beta-lactamase ratio, antagonist mode; activity change, negative = inhibition: at 76.7 µM (top of the series)
How it was run: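 Beta-lactamase reporter antagonist mode: HEK293T FXR-UAS-bla cells, titrated compound, CDCA stimulation, 16 h 37 C, CCF4 dye 2 h RT. Data normalized to CDCA 50 uM and DMSO; Hill-fit IC50.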

[12] = molecular target: Bile acid receptor (Homo sapiens) (UniProt Q96RI1); experiment: qHTS assay for small molecule agonists of farnesoid X receptor signaling (AID 588527; calls by dose curve; note: potency is the fitted concentration of half-maximal effect); conditions: HEK293T FXR-UAS-bla, beta-lactamase ratio, 16 h; activation: hits give high values
How it was run: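 FXR-UAS-bla HEK293T cells (10% dialyzed FBS) preincubated 5-7 h at 37 C, then compounds at up to 92 uM for 16 h at 37 C. CCF4 beta-lactamase read-out after 2 h RT. Normalized to chenodeoxycholic acid (100 uM) and DMSO; Hill fit gave EC50 and efficacy.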

[13] = molecular target: Peroxisome proliferator-activated receptor delta (Homo sapiens) (UniProt Q03181); experiment: qHTS assay for small molecule antagonists of peroxisome proliferator-activated receptor delta signaling (AID 588535; active = well fitted inhibition curve with a large enough effect in the signal ratio, with a control signal flat, not every such curve was filed as active; inconclusive = small, poorly fitted or top-dose-only effect, or effect the other way, or a change in a side signal; inactive = no such curve, though single readings can be large or run the other way; the % refers to the signal ratio; note: potency is the fitted concentration of half-maximal effect); conditions: HEK293T PPARd-UAS-bla, beta-lactamase FRET ratio, 18 h; activity change, negative = inhibition: at 76.7 µM (top of the series)
Chain of UniProt Q03181 (Q03181 whole entry, looked up): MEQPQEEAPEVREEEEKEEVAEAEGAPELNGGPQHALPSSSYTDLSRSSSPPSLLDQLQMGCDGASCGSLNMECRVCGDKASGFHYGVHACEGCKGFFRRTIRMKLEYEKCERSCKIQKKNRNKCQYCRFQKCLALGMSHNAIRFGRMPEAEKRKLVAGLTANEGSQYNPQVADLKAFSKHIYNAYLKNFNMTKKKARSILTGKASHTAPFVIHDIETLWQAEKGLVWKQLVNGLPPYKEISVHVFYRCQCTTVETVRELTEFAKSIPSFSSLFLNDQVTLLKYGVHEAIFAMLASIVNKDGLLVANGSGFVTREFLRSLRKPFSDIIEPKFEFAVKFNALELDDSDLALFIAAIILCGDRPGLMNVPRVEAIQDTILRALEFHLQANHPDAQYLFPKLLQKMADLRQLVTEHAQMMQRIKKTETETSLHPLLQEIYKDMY
How it was run: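 Titrations were run on PPAR-delta-UAS-bla HEK293T cells in charcoal/dextran-stripped serum, incubated 18 h at 37 C. CCF4 fluorescence (460/530 nm) after 2 h RT; Hill equation yields IC50 and maximal response.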

[14] = molecular target: Peroxisome proliferator-activated receptor gamma (Homo sapiens) (UniProt P37231); experiment: qHTS assay for small molecule agonists of peroxisome proliferator-activated receptor gamma signaling (AID 588536; active = well fitted curve in the direction sought with a large enough effect in the signal ratio, with a control signal flat, not every such curve was filed as active; inconclusive = small, poorly fitted or top-dose-only effect, or effect the other way, or a change in a side signal; inactive = no such curve, though single readings can be large or run the other way; the % refers to the signal ratio; note: potency is the fitted concentration of half-maximal effect); conditions: HEK293 PPARg-UAS-bla, beta-lactamase ratio, 16 h; activation: at 76.7 µM (top of the series), percent of rosiglitazone response, DMSO as zero
How it was run: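 Cells were plated and held 6–6.5 h at 37 C, then compounds were added as a titration series. After a further 16 h, CCF4 dye was loaded for 2 h at room temperature and emission at 460/530 nm recorded.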

[15] = molecular target: Retinoic acid receptor RXR-alpha (Homo sapiens) (UniProt P19793); experiment: qHTS assay for small molecule agonists of retinoid X receptor alpha signaling (AID 588544; calls by dose curve;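 note: 0% = DMSO basal wells and 100% = reference agonist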); conditions: HEK293T RXRa-UAS-bla, beta-lactamase reporter, 18 h; activation: at 76.7 µM (top of the series) unless noted
Chain of UniProt P19793 (P19793 whole entry, looked up): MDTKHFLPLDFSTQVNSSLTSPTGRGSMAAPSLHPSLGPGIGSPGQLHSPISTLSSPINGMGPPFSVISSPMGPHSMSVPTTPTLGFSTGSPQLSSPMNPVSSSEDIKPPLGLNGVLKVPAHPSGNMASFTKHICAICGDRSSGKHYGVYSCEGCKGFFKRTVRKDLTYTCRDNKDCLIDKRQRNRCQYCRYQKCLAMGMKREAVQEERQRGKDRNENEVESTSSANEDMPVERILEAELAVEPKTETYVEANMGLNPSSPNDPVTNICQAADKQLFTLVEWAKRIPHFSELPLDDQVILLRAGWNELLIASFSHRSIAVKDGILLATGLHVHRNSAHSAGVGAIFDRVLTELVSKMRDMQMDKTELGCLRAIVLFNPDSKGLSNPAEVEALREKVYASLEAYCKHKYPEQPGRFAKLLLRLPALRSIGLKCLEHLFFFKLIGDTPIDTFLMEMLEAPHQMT

[16] = molecular target: Retinoic acid receptor RXR-alpha (Homo sapiens) (UniProt P19793); experiment: qHTS assay for small molecule antagonists of retinoid X receptor alpha signaling (AID 588546; active = well fitted inhibition curve with a large enough effect in the signal ratio, with a control signal flat, not every such curve was filed as active; inconclusive = small, poorly fitted or top-dose-only effect, or effect the other way, or a change in a side signal; inactive = no such curve, though single readings can be large or run the other way; the % refers to the signal ratio;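 note: cells stimulated with 9-cis-retinoic acid as agonist; % is set by controls: 0 for no effect and ±100 for the full control effect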); conditions: HEK293T RXRa-UAS-bla, beta-lactamase ratio, antagonist mode
How it was run: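 Beta-lactamase reporter inhibition, read as CCF4 fluorescence ratio (ex 405, em 460/530 nm) after 2 h at RT. HEK293T UAS-bla cells, 2500/well, were stimulated with 9-cis-RA at 500 or 100 nM final alongside test compound for 18 h at 37 C.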

[17] = molecular target: Luciferin 4-monooxygenase (Photinus pyralis) (UniProt P08659); experiment: Biochemical firefly luciferase enzyme assay for NPC (AID 624030); note: potency is the fitted concentration of half-maximal effect; nearly all actives have a fitted effect of over 70% in size
Chain of UniProt P08659 (P08659 whole entry, looked up): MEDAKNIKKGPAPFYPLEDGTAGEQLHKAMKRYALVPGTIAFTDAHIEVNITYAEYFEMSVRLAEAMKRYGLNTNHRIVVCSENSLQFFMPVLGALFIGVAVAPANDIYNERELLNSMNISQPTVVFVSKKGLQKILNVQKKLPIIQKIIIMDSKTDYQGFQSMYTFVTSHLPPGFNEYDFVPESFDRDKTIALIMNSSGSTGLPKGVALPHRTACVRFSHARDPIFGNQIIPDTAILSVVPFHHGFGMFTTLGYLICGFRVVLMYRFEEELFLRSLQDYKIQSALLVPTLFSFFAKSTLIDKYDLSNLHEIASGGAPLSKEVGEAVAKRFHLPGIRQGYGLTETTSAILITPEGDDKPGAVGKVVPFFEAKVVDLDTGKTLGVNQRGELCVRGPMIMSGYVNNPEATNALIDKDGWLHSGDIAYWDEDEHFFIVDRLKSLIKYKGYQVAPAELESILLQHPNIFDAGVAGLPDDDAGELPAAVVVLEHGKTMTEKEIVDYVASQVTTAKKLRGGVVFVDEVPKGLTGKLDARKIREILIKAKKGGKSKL
How it was run: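 Direct inhibition of firefly luciferase enzyme (10 nM final, 50 mM Tris Acetate) assessed by luminescence within 5 minutes. Percent activity scaled between DMSO and PTC124 positive control, with concentration-effect curves classified by fit quality and response.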
Tags give direction and shape of the fitted curve or compound fluorescence and quenching.

CO[C@H]1/C=C/O[C@@]2(C)Oc3c(C)c(O)c4c(O)c(c5c(c4c3C2=O)NC2(CCN(CC(C)C)CC2)N=5)=NC(=O)/C(C)=C\C=C\[C@H](C)[C@H](O)[C@@H](C)[C@@H](O)[C@@H](C)[C@H](OC(C)=O)[C@@H]1C
inconclusive: Potency [1] 63.1 µM [cytotoxic, partial curve, poor fit] | Potency [2] 50.1 µM [cytotoxic, partial curve] | Potency [3] 50.1 µM [cytotoxic, partial curve, poor fit] | Potency [4] 50.1 µM [cytotoxic, partial curve, poor fit] | Potency [5] 63.1 µM [cytotoxic, single point] | Potency [6] 39.8 µM [cytotoxic, partial curve] | Potency [7] 50.1 µM [cytotoxic, partial curve] | Potency [8] 56.2 µM [inhibitor, partial curve, poor fit] | Potency [12] 39.8 µM [side channel, rising, partial curve, poor fit] | Potency [13] 20 µM [fluorescent, side channel, partial curve, poor fit] | Potency [14] 12.6 µM [side channel, rising, full curve] | activation [15] -28.2% | max response [16] -47.6% | Potency [17] 25.6 µM [inhibitor, partial curve, poor fit]
inactive: Potency [9] | Potency [10] | Potency [11]
